{"source": "PubChem BioAssay AID686979", "about": "(National Center for Advancing Translational Sciences (NCATS), 2013)", "note": "About 50,000 (12%) of roughly 420,000 compounds were called active. The inconclusive results got no clear call from the source; some entries with a clear call stand among them for comparison. Calls follow the shape of the dose curve; as a rule, active = well fitted inhibition curve with a large enough effect; inconclusive = small, poorly fitted or top-dose-only effect; inactive = flat fitted curve, though single readings scatter. No potency is given beside an inconclusive call; the fits are too rough. % is scaled to controls: 0 for no effect and ±100 for the full control effect; potency is read from the fitted curve at half-maximal effect; tags tell the direction and shape of the fitted curve."}
{"assay": "qHTS for Inhibitors of human tyrosyl-DNA phosphodiesterase 1 (TDP1): qHTS in cells in presence of CPT; also: nearly all actives have a fitted effect of over 55% in size", "details": "chicken DT40 Tdp1-/-;hTDP1 cells + 20 nM CPT, ATP luminescence, 48 h; activity change, negative = growth inhibition: at 46.2 µM (top of the series) unless noted", "how_it_was_run": "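Chicken DT40 Tdp1-/- cells complemented with human TDP1, 400 cells/well, exposed to compounds plus 20 nM camptothecin for at least 48 h at 37 C; viability read as ATP content by CellTiter-Glo luminescence.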"}
{"smiles": "O=C1CCN(Cc2ccccc2)C=C1c1ccc(C(F)(F)F)cc1", "Potency": "inconclusive [inhibitor, single point]"}
{"smiles": "O=C(CN1CCN(C(=O)c2ccco2)CC1)Nc1ccc(Cl)c(C(F)(F)F)c1", "Potency": "active: 23.1 µM"}
{"smiles": "CN(CC(=O)NC1CCCc2ccccc21)C1CCCCC1", "note": "(stereo not drawn)", "Potency": "inconclusive [inhibitor, single point]"}
{"smiles": "COc1ccc([C@H]2[C@H](C(C)=O)N3N=Cc4ccccc4C3C23C(=O)OC(C)(C)OC3=O)cc1", "note": "(stereo partly drawn)", "Potency": "inconclusive [inhibitor, full curve]"}
{"smiles": "Cc1cc(N2CCCC2)nc2ccc(NC(=S)NC(C)C)cc12", "Potency": "inconclusive [inhibitor, single point]"}
{"smiles": "CCOC(=O)c1c(NC(=O)c2ccc(C)cc2)sc2c1CCCCC2", "activity change, negative = growth inhibition": "inactive: 9.67%"}
{"smiles": "COc1ccc(C)cc1NC(c1nnc(-c2ccccc2)o1)c1ccc(F)cc1Cl", "note": "(stereo not drawn)", "Potency": "inconclusive [inhibitor, single point]"}
{"smiles": "CC1=C(C(N)=O)C(c2ccc3c(c2)OCO3)n2nc(-c3cccc(C)c3)nc2N1", "note": "(stereo not drawn)", "Potency": "inconclusive [inhibitor, single point]"}
{"smiles": "CCN(CC)S(=O)(=O)c1cccc(-c2nnc(SCCOc3ccc(Cl)cc3)o2)c1", "Potency": "active: 23.1 µM"}
{"smiles": "CCCOc1ccc(NC(=O)CC2C(=O)N(CC)C(=S)N2CCCN2CCN(Cc3ccccc3)CC2)cc1", "note": "(stereo not drawn)", "Potency": "active: 14.6 µM"}
{"smiles": "CCOC(=O)c1nnn(-c2nonc2N)c1CNc1ccc(C)c(Br)c1", "Potency": "inconclusive [inhibitor, single point]"}
{"smiles": "CC(=O)c1ccc(OCc2cc(C(=O)N(C)C(C)c3nccs3)no2)cc1", "note": "(stereo not drawn)", "Potency": "active: 16.4 µM"}
{"smiles": "CCOC(=O)c1sc(NC(=O)CNCc2ccccn2)c(C(=O)OCC)c1C", "Potency": "inconclusive [inhibitor, partial curve, poor fit]"}
{"smiles": "C[C@@H]1CN([C@@H](C)CO)C(=O)CCCn2nncc2CO[C@H]1CN(C)S(=O)(=O)c1cccc(C#N)c1", "activity change, negative = growth inhibition": "inactive: 9.94%"}
{"smiles": "O=C(NC1CCCC1)c1cccnc1N1CCCCCC1", "Potency": "inconclusive [inhibitor, partial curve]"}
{"smiles": "COc1ccc(CCN2C(=S)NC3CC2(C)Oc2ccc([N+](=O)[O-])cc23)cc1OC", "note": "(stereo not drawn)", "Potency": "active: 10.3 µM"}
{"smiles": "CNc1nc(-c2ccc3c(c2)CCN3C(=O)c2ccccc2F)c(C)s1", "Potency": "inconclusive [inhibitor, single point]"}
{"smiles": "COc1ccccc1/C=C/CN1CCCC(CO)(Cc2cccc(Cl)c2)C1", "note": "(stereo not drawn)", "Potency": "inconclusive [inhibitor, single point]"}
{"smiles": "COc1ccc(C=CC(=O)c2ccc(OCc3ccccc3)c(OC)c2)cc1OC", "Potency": "active: 25.9 µM"}
{"smiles": "CN1/C(=C\\C(=O)Nc2ccc(F)cc2)C(C)(C)c2ccccc21", "Potency": "inconclusive [inhibitor, single point]"}
{"smiles": "O=C(NN1C(=O)c2ccccc2NC1c1ccc([N+](=O)[O-])o1)c1ccccc1", "note": "(stereo not drawn)", "activity change, negative = growth inhibition": "inconclusive: -34.3% [inhibitor]"}
{"smiles": "Cc1noc(C)c1S(=O)(=O)N1CCCCC1c1cc(C(=O)Nc2cccc3c2CCCC3)no1", "note": "(stereo not drawn)", "Potency": "inconclusive [inhibitor, single point]"}
{"smiles": "CCc1cccc(CC)c1NC(=S)NCCc1c(C)[nH]c2ccccc12", "Potency": "inconclusive [inhibitor, single point]"}
{"smiles": "CCOC(=O)C1CCCN(CC(=O)c2c[nH]c3ccc(C)cc23)C1", "note": "(stereo not drawn)", "Potency": "inconclusive [inhibitor, single point]"}
{"smiles": "CN(c1ccc(C(=O)NCCSCc2c(F)cccc2Cl)cc1)S(C)(=O)=O", "Potency": "inconclusive [inhibitor, single point]"}
{"smiles": "CC(=O)C[C@H](O)CC(=O)[C@H]1OC(=O)CCCCCCCCc2ccccc21", "Potency": "inconclusive [inhibitor, single point]"}
{"smiles": "O=C(NNC1=Nc2cc([N+](=O)[O-])ccc2OC1)c1ccccc1Cl", "Potency": "inconclusive [inhibitor, single point]"}
{"smiles": "O=C(Nc1ccc2oc(-c3ccccc3F)nc2c1)c1ccccc1F", "Potency": "inconclusive [inhibitor, single point]"}
{"smiles": "Cc1ccc(S(=O)(=O)Nc2cncnc2NS(=O)(=O)c2ccc(C)cc2)cc1", "Potency": "inconclusive [inhibitor, single point]"}
{"smiles": "Cc1c(C(=O)/C=C/N(C)C)nnn1-c1ccc(Cl)cc1Cl", "Potency": "inconclusive [inhibitor, single point]"}
{"smiles": "CCC(=O)Nc1nc2ccc([N+](=O)[O-])cc2s1", "Potency": "inconclusive [inhibitor, single point]"}
{"smiles": "O=C(CN1CCN(CC(=O)c2ccccc2)CC1)c1ccccc1", "Potency": "inconclusive [inhibitor, partial curve]"}
{"smiles": "Cc1cc(=O)c2c(=O)[nH][nH]c2[nH]1", "activity change, negative = growth inhibition": "inactive: 16.9%"}
{"smiles": "O=C(N/C(=C\\c1ccc([N+](=O)[O-])cc1)C(=O)N1CCOCC1)c1cccc(Br)c1", "Potency": "inconclusive [inhibitor, single point]"}
{"smiles": "CC(C)(C)NC(=O)CSc1nc2ccc(Nc3nc(N4CCOCC4)nc(N4CCOCC4)n3)cc2s1", "Potency": "active: 13 µM"}
{"smiles": "O=C(OCC(=O)N1CCN(c2ccccc2)CC1)c1ccc([N+](=O)[O-])s1", "Potency": "active: 10.3 µM"}
{"smiles": "Cc1ccc(S(=O)(=O)N2CCC(C(=O)NC3CC(C)(C)NC(C)(C)C3)CC2)cc1C", "activity change, negative = growth inhibition": "inactive: -0.815%"}
{"smiles": "COc1ccc(CCn2c(C)nc3c(c(=O)c4ccccc4n3C)c2=O)cc1", "Potency": "inconclusive [inhibitor, partial curve]"}
{"smiles": "CCOc1cc(C(=O)Nc2cccnc2)cc(OCC)c1OCC", "Potency": "inconclusive [inhibitor, single point]"}
{"smiles": "Cc1c(C(=O)NCc2ccc3c(c2)OCCO3)sc(=O)n1Cc1ccccc1C#N", "Potency": "inconclusive [inhibitor, single point]"}
{"smiles": "COc1ccc2[nH]c3c(c2c1)CCN1C(=O)C(CC(=O)NC/C=C(\\C)CCC=C(C)C)C[C@H](C(=O)N(C(C)C)C(C)C)[C@@]31C", "note": "(stereo partly drawn)", "Potency": "inconclusive [inhibitor, single point]"}
{"smiles": "COc1ccc(-c2cc3nc(NCCCN(C)C)n(C)c(=O)c3s2)cc1OC", "Potency": "inconclusive [inhibitor, single point]"}
{"smiles": "CCOc1ccc(NC(=O)Nc2ccon2)cc1", "Potency": "inconclusive [inhibitor, partial curve, poor fit]"}
{"smiles": "COc1ccc(OCCNc2c([N+](=O)[O-])c(=O)oc3ccccc23)cc1", "activity change, negative = growth inhibition": "inactive: -3.28%"}
{"smiles": "CCOC(=O)c1cc(-c2ccc(OC)cc2)n(CCC(=O)NCCN2CCC(C)CC2)c1C", "Potency": "inconclusive [inhibitor, single point]"}
{"smiles": "Cc1ccc(-c2cc3c(nn2)-c2ccccc2C3=O)cc1", "Potency": "active: 16.4 µM"}
{"smiles": "CCNC(=O)C1CCCN(C(=O)c2ccc(C)c(F)c2)CC1", "note": "(stereo not drawn)", "activity change, negative = growth inhibition": "inactive: 7.26%"}
{"smiles": "N#Cc1c(NC(=O)c2cc(C3CC3)on2)sc2c1CCC2", "Potency": "active: 10.3 µM"}
{"smiles": "Cc1cc(NC(=O)c2ccccc2F)ccc1-c1nc2ccccc2s1", "Potency": "inconclusive [inhibitor, single point]"}
{"smiles": "Cc1ccc(-n2cnc3cc(C(=O)NCCC4=CCCCC4)ccc32)c(C)c1", "Potency": "inconclusive [inhibitor, single point]"}
{"smiles": "NC(=S)n1[nH]c(-c2ccc([N+](=O)[O-])cc2)c(N=Nc2ccccc2[N+](=O)[O-])c1=O", "Potency": "inconclusive [inhibitor, single point]"}
{"smiles": "Cc1cc(S(=O)(=O)N2CCN(Cc3ccccc3)CC2)c(C)s1", "Potency": "inconclusive [inhibitor, single point]"}
{"smiles": "O=C1CC(N(O)c2ccccc2)C(=O)N1c1ccc(Cl)c(Cl)c1", "note": "(stereo not drawn)", "Potency": "inconclusive [inhibitor, partial curve]"}
{"smiles": "Cc1ccc(NC(=O)CNc2ccccc2CN(C)C2CCCCC2)cc1", "Potency": "inconclusive [inhibitor, single point]"}
{"smiles": "Cc1ccc(C(=O)NCc2ccco2)cc1S(=O)(=O)Nc1cccc(C)c1C", "activity change, negative = growth inhibition": "inconclusive: -27.4% [inhibitor]"}
{"smiles": "CN1CCN(C(=O)c2cccc3c(-c4ccc(F)c(F)c4)coc23)CC1", "Potency": "inconclusive [inhibitor, single point]"}
{"smiles": "CCOC(=O)C1CCCN(C(=O)/C=C/c2cccc([N+](=O)[O-])c2)C1", "note": "(stereo not drawn)", "activity change, negative = growth inhibition": "inactive: -20.6%"}
{"smiles": "O=C(CSc1nnc(-c2ccc(Cl)cc2)n1-c1ccc(Cl)cc1)N/N=C/c1ccco1", "Potency": "active: 20.6 µM"}
{"smiles": "CCOCCCNC(=S)Nc1ccc2nc(N3CCCC3)cc(C)c2c1", "Potency": "inconclusive [inhibitor, single point]"}
{"smiles": "CC(=O)Nc1ccc(-c2csc(Nc3ccc(S(N)(=O)=O)cc3)n2)cc1", "activity change, negative = growth inhibition": "inactive: 9.05%"}
{"smiles": "O=C(NCC(c1cccnc1)N1CCN(c2ccccc2F)CC1)C1CCCCC1", "note": "(stereo not drawn)", "Potency": "inconclusive [inhibitor, partial curve]"}
{"smiles": "CCCc1cc(=O)[nH]c(SCC(=O)N2CCCC2=O)n1", "activity change, negative = growth inhibition": "inactive: 0.195%"}
{"smiles": "NC(=O)c1ccccc1N/C=C/C(=O)c1ccc(F)cc1", "Potency": "inconclusive [inhibitor, single point]"}
{"smiles": "COc1cccc(CNc2nn[nH]n2)c1OC", "activity change, negative = growth inhibition": "inactive: 8.09%"}
{"smiles": "CC/C(C)=N/Nc1nc2sc3c(c2c(=O)[nH]1)CC(C)(C)OC3", "activity change, negative = growth inhibition": "inactive: 1.97%"}
{"smiles": "CCOc1ccccc1NC(C)C(=O)NC(=O)NC1CCCCC1", "note": "(stereo not drawn)", "Potency": "active: 18.4 µM"}
{"smiles": "CCNc1ncnc2c1cnn2C1CCCO1", "note": "(stereo not drawn)", "activity change, negative = growth inhibition": "inactive: -16.3%"}
{"smiles": "O=C(c1ccc(CS(=O)Cc2ccc(Cl)cc2)o1)N1CCN(c2cccc(Cl)c2)CC1", "note": "(stereo not drawn)", "Potency": "inconclusive [inhibitor, single point]"}
